For 22 molecules, binding signal results are on record in article PMC12136788.

The chains are these.
T1: UNK ZnF1-3 (human, UniProt Q9C0B0 31-174)
T1 sequence: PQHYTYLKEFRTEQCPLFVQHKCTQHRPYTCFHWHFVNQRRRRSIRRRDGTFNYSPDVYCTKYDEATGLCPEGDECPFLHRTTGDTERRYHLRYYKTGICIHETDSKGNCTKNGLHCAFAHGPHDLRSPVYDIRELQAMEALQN

B1: chr10:120833061:120833062:-_ENSG00000107581_ENST00000369144|perfect_dup|FALSE|FALSE (ssRNA)
RNA: GGGAGUUCUACAGUCCGACGAUCUUGGGACUCUUCUUUAGCAGCUUCUGUUUUUUCCUCUGCUAAUUUCAAAUAUGCCCUAACAACAUCUUCUAAAGAUUUAAUGUUUACCUGUUGGCAUAUGUUCUUAUAUUGAUAUAACCCCAACAGAGGAUUGAGCAUCA
B2: chr2:31472812:31472813:+_ENSMUSG00000026843_ENSMUST00000055244|mus_mus|FALSE|FALSE (ssRNA)
RNA: GGGAGUUCUACAGUCCGACGAUCCGAGCACGUUUCAAACGGAAUGUUCCUCAGGUCAAUCCAAAAUGCAGGAAAAAAUAGCUUCAACUCCGUGUUUCCUUUAAAAAUACAUGUUAUCUGUACAGAUACACUACAGUAAACAUUCAACAGAGGAUUGAGCAUCA
B3: chr9:66219764:66219765:+_ENSMUSG00000038664_ENSMUST00000042824|mus_hu|motif|central (ssRNA)
RNA: GGGAGUUCUACAGUCCGACGAUCUUCAAAGUCUGGCAACUGUGGUCCUUUGAGGCAUAAAACUUGUUGGGGCAAAGGUACGGCUUCCUUAUUGCUAACCAGUUUAGAAUACAGAACAGCAACUCCCUCUCUUGUAGCAAUAGACAACAGAGGAUUGAGCAUCA
B4: chr16:94913438:94913439:+_ENSMUSG00000022897_ENSMUST00000122284|mus_hu|FALSE|FALSE (ssRNA)
RNA: GGGAGUUCUACAGUCCGACGAUCAGGGAUGUCAUGGAGUGGUGACUGUGGCCAACCUCCAUAGAAUCUUGGGUAGAGGAGCUAUUCGUUGGAGAAUUGUAGACCCUUGGCCUGGUCCGGUUACCCAAGGCUUGUUGUCCAUGGCAACAGAGGAUUGAGCAUCA
B5: chr3:179287964:179287965:+_ENSG00000136518_ENST00000429709|hu_hu|hu_hu_hu_mus_True|88_108 (ssRNA)
RNA: GGGAGUUCUACAGUCCGACGAUCCUUUAGAGGUGAAAUGGCCUCCAUAUUCUCCCUGGGCACGCGGAGGGCAUUGGUGUCUAUGUAGUAGGUGGGCCCGCCCUGCUUGCCUUUGUCACCAUCAAUCUCCAUCAUUGUACUUCCCAACAGAGGAUUGAGCAUCA
B6: chr7:135839730:135839731:+_ENSMUSG00000042105_ENSMUST00000151237|mus_hu|FALSE|FALSE (ssRNA)
RNA: GGGAGUUCUACAGUCCGACGAUCAUGGUACUUUAUUUUAAUAAUCACAAGAUUUAACACGUAAAAAAAAAAGAUAGCACUAAUAAAUAACAAAAGUGGAAUGCUUAUCAAAGUAACGACAUAAUGUUCAGUUGAGAAUCAGUCCAACAGAGGAUUGAGCAUCA
B7: chr5:138658563:138658564:+_ENSG00000015479_ENST00000502499|hu_hu|motif|central (ssRNA)
RNA: GGGAGUUCUACAGUCCGACGAUCAUCUUUUUUCACAGCUUUAUCUGAUGGUUCCUUUUUCCCAUCAGAAGCCACAUCACCGGAAUUAGCAAGAUCGGUCUCGUCUCCCACUGAACUGCCACUUUCUAGCAGUGCUGCUGCUUCCAACAGAGGAUUGAGCAUCA
B8: chr7:65705475:65705476:+_ENSG00000169902_ENST00000304842|hu_hu|hu_hu_hu_mus_True|38_48 (ssRNA)
RNA: GGGAGUUCUACAGUCCGACGAUCUCUAUUCGGUGAUGGCACUCCAUGGCAUGCUGGCCCAGGUAAAACACGGUCACAGAACUAAUCACCAGACAUGCCAAUAGUAAGUUCUGCUUCAGCUUCCCAACCAUCUUGAUGUGGUUACAACAGAGGAUUGAGCAUCA
B9: chr5:37680062:37680063:+_ENSMUSG00000029121_ENSMUST00000031004|mus_mus|motif|central (ssRNA)
RNA: GGGAGUUCUACAGUCCGACGAUCUUUGGGUGUAGCUGGCACCUCGUACACAGGCCCAUCGUACAUGCCCCUGGAAACACGGUGCAACCCGAAAACCUUGCUUCUGAUCCUGACACGCUGGUAGAGAUGCUCUGGGAAUGGCUUCAACAGAGGAUUGAGCAUCA
B10: chr22:19452774:19452775:-_ENSG00000070010_ENST00000399523|hu_hu|hu_hu_hu_mus_False|18_28 (ssRNA)
RNA: GGGAGUUCUACAGUCCGACGAUCCUUCUCAUUGUAGUUGAUAGCAAUCACAUCUCCAGUCGUCAGACAGGCGAAGUUUCUCAAUGCAUUUUCUAAUACCGCUUUAGGGUUGGUGAUGUCCAGGAAGUCUGGGCUCUGAGGCUGCAACAGAGGAUUGAGCAUCA
B11: chr4:95690885:95690886:+_ENSMUSG00000028572_ENSMUST00000156910|mus_mus|mus_mus_mus_hu_False|18_68 (ssRNA)
RNA: GGGAGUUCUACAGUCCGACGAUCUUUAGAAAAUGUUAAAUACCAUGCUAAAAUAUUUUCAAAGGCUAGUCUUAUUUUACCAGAAGUCACAGGCAAGCAGACACUACAAGAAUAUAUAAAUACAAACCUCAACAAUAUAACUGUCAACAGAGGAUUGAGCAUCA
B12: chr4:6882955:6882956:+_ENSG00000170871_ENST00000425103|hu_mus|FALSE|FALSE (ssRNA)
RNA: GGGAGUUCUACAGUCCGACGAUCUGGCGACACAGCCGCCAGAGGGAGGCCUGCAGCUGCGAUGCAGAAGCGGGACGCACUAGGACAAGCACAUGCACACCCAUUCCUCAUGGACAGCACAGUCUAGUCUACUUCAGAGAGCAACAACAGAGGAUUGAGCAUCA
B13: 99250274_99250394_344_CDS_ENSMUSG00000019761_ENSMUST00000103131|mouse|control|control (ssRNA)
RNA: GGGAGUUCUACAGUCCGACGAUCUCCGAAUCCACCACCGCCAAAGCCUCCUCCAUAGCUACCGCCACCAAAGCUGCCUCCACCGAAGCUGCCACCUCCACCGAAGCUGCCACCCCCAAAACUGCUACCUCCAUAGCCUCCCCCCAACAGAGGAUUGAGCAUCA
B14: chrX:100667754:100667755:+_ENSG00000126945_ENST00000316594|hu_hu|motif|central (ssRNA)
RNA: GGGAGUUCUACAGUCCGACGAUCUCCGUAUCUAUGAUCAGACAUUCCUGAAAAACAGUAAUUGAGGUCUCUUCCAAAUCGGUCAGACCCAAAGCCAUAUCCAUCAUUAUAGCCACCAUAGUCAUCAUAGCCUCCAUACCCUCCCAACAGAGGAUUGAGCAUCA
B15: chr1:100342015:100342016:+_ENSG00000162688_ENST00000361915|hu_mus|FALSE|FALSE (ssRNA)
RNA: GGGAGUUCUACAGUCCGACGAUCGGCUUCCUCUGCGGAUAAGGCCAUUUCUCCAAAGGGGAAAGUAAAAUACCUGGUAACUAAAGGAUACUUCCUGGUGACAGGUCCUAGUUUAGGGCCAUGGCCUGCCAGUCGUUCAUAAAACAACAGAGGAUUGAGCAUCA
B16: chr16:94664741:94664742:+_ENSMUSG00000040785_ENSMUST00000117648|mus_hu|mus_mus_mus_hu_False|98_108 (ssRNA)
RNA: GGGAGUUCUACAGUCCGACGAUCUGGCAUGGAUCUUUGCAUUGGAUAUUCAGGAGAAAGGCUGGCCAAGGGUGUAUAUAUGCUGGUGUACUGGGGCAAACCUGGUAACACGUUUAUGUAUGCUGGCGGUGUCUGGGUGAUAUCCAACAGAGGAUUGAGCAUCA
B17: chr2:202488911:202488912:-_ENSG00000155755_ENST00000286196|hu_mus|hu_hu_hu_mus_False|38_68 (ssRNA)
RNA: GGGAGUUCUACAGUCCGACGAUCAUUGAAACAUUUUUCAUAAUCUCCAGUAGCAUUUCAGCAUUAUUAAUCAAAAACUCAAUUGUAAAUACAUGUAUAUACAUCUUAUACACUUAAAAACACGAGUGGGGAGCGCAGGCGCCACAACAGAGGAUUGAGCAUCA
B18: chr11:29608675:29608676:+_ENSMUSG00000020458_ENSMUST00000102843|mus_mus|motif|central (ssRNA)
RNA: GGGAGUUCUACAGUCCGACGAUCCUCUGUAUCAGAAGGAAGUUUUUCCUCUGCUUCUUUCGUAAGUACUUUGGGUUUAACGGUGUUGCCCAUUUCUAUUUGAGAUUCCAAAGCAGAAACAUUUGGAAGCAAUAAGGGCACCUUCAACAGAGGAUUGAGCAUCA
B19: 53135465_53138077_820_CDS_ENSG00000012660_ENST00000304434|human|control|control (ssRNA)
RNA: GGGAGUUCUACAGUCCGACGAUCGAAUGUGCACGGCCAGAUGACCCCGCAGCUGGUCUGGAUGAUUGUCAGCACAAACUGAAGCAGCUGCCCCUGAGUGAUGUACUUCUUCCACCAGAGGUAUGGACGCAUGGAAGGGACUGACAACAGAGGAUUGAGCAUCA
B20: chr8:11667275:11667276:+_ENSG00000079459_ENST00000525900|hu_hu|FALSE|FALSE (ssRNA)
RNA: GGGAGUUCUACAGUCCGACGAUCAUCCUUCUCCUUGCUCUCCAUGAACCGCCAGUCUGGUUGGUAAAGGAAAGAGUGAAAGUUGUGUAACAGCGGGACCUUCUUUUCCACACUGAUGGUCAUGUCAUCUUCCAGUGUGUCCAGCAACAGAGGAUUGAGCAUCA
B21: chr2:84460416:84460417:-_ENSMUSG00000034101_ENSMUST00000111697|mus_hu|motif|central (ssRNA)
RNA: GGGAGUUCUACAGUCCGACGAUCGCCACCUGGAUAACCAUCUUCAUAGUGGCGACUAUAACCAUCAGGAGGGUAGUGGAAGUUCCGGGGAAGGGUAGCAGUGCCAGCUUGCCCCACAUAGGGACCAGGUCCCCCAUUGCCAUUCAACAGAGGAUUGAGCAUCA
B22: chr3:179287964:179287965:+_ENSG00000136518_ENST00000429709|hu_hu|hu_hu_hu_mus_True|88_88 (ssRNA)
RNA: B5 RNA with U27G, A30U, A36G

Positions count from the first letter of the chain named. This is one part of the list.

The target in this test is T1, UNK ZnF1-3. Kind of test: nsRBNS (natural sequence RNA bind-n-seq); RBNS binding buffer (assumed for nsRBNS): 25 mM Tris pH 7.5, 150 mM KCl, 3 mM MgCl2, 0.01% Triton X-100, 500 ug/ml BSA, 20 U/ml SUPERase-In, 4 C; UNK is unkempt and MSI1 is Musashi-1; names of the RNAs are library labels; protein concentration not given here; high values mean tight binding.
B1 registered a binding signal of 0.835 enrichment R.
Molecule B2 returned a binding signal of 1.22 enrichment R.
The molecule B3 displayed a binding signal of 0.979 enrichment R.
In turn, B4 gave a binding signal of 0.588 enrichment R.
As for B5, the binding signal amounted to 0.786 enrichment R.
Regarding B6, the binding signal is 1.24 enrichment R.
The molecule B7 yielded a binding signal of 0.511 enrichment R.
For the molecule B8, the binding signal came out at 0.544 enrichment R.
Then B9, with 0.92 enrichment R.
Then B10, with 0.772 enrichment R; and B11, with 1.37 enrichment R; and B12, with 1.34 enrichment R.
B13 gave a binding signal of 1.69 enrichment R.
Then B14, with 0.999 enrichment R; and B15, with 0.727 enrichment R.
For B16, the binding signal was determined as 0.977 enrichment R.
In turn, B17 yielded a binding signal of 1.29 enrichment R.
With B18, the binding signal was 0.539 enrichment R.
For B19, the binding signal is 1.42 enrichment R.
B20: the binding signal came to 0.692 enrichment R.
With B21 the figure was 0.987 enrichment R; with B22, 0.666 enrichment R.
